# Measurements taken from the antibiotic and cytotoxicity screens of Wong et al. (2023).
# The list shows a part of the results.
# Tests used:
# HSkMC = human skeletal muscle cells; assay: cytotoxicity call (relative viability < 0.9); conditions: 10 µM
# S. aureus RN4220 = assay: growth inhibition call (relative growth <= 0.2); conditions: 50 µM
SMILES,cytotoxicity call (HSkMC),growth inhibition call (S. aureus RN4220)
O=C(/C=C/c1ccc(O)c(O)c1)O[C@@H]1C[C@](O)(C(=O)O)C[C@@H](O)[C@H]1O,inactive,inactive
C[C@H](CO)N1C[C@H](C)[C@@H](CN(C)S(=O)(=O)c2ccc(Cl)cc2)Oc2ccc(NC(=O)C3CC3)cc2CC1=O,inactive,inactive
Nc1ncnc2c([C@@H]3N[C@H](CO)[C@@H](O)[C@H]3O)c[nH]c12,inactive,inactive
O=C(C[C@@H]1CC[C@H]2[C@@H](COC[C@H](O)CN2S(=O)(=O)c2ccccc2F)O1)NCc1ccccc1Cl,inactive,inactive
C[C@@H]1CN([C@H](C)CO)C(=O)c2cccc(NC(=O)Nc3ccccc3)c2O[C@H]1CN(C)C(=O)Nc1ccc(C(F)(F)F)cc1,inactive,inactive
O=C(C[C@@H]1C[C@@H]2c3cc(NC(=O)Nc4ccc(C(F)(F)F)cc4)ccc3O[C@@H]2[C@@H](CO)O1)NC1CCCCC1,inactive,inactive
C[C@H](CO)N1C[C@H](C)[C@@H](CN(C)C(=O)Nc2ccc(F)cc2)OCCCC[C@H](C)Oc2ccc(NS(=O)(=O)c3ccc(Cl)cc3)cc2C1=O,inactive,inactive
Cc1noc(C)c1S(=O)(=O)Nc1cccc2c1O[C@H](CN(C)Cc1ccc(-c3ccccc3)cc1)[C@H](C)CN([C@@H](C)CO)C2=O,inactive,inactive
CN1CCC[C@H]1CCO,inactive,inactive
Cc1ccc(S(=O)(=O)N(C)C[C@@H]2OCCCC[C@H](C)Oc3ccc(NC(=O)Nc4ccc(C(F)(F)F)cc4)cc3C(=O)N([C@H](C)CO)C[C@@H]2C)cc1,inactive,inactive
C[C@@H]1CCCCO[C@@H](CN(C)Cc2ccc3c(c2)OCO3)[C@@H](C)CN([C@H](C)CO)C(=O)c2cc(NC(=O)Nc3cccc4ccccc34)ccc2O1,inactive,inactive
C[C@@H]1CN([C@@H](C)CO)C(=O)c2cc(NS(=O)(=O)c3ccccc3)ccc2O[C@@H](C)CCCCO[C@@H]1CN(C)S(=O)(=O)c1ccc(Cl)cc1,inactive,inactive
Cc1ccc(S(=O)(=O)N(C)C[C@@H]2Oc3c(NS(=O)(=O)c4cccs4)cccc3C(=O)N([C@@H](C)CO)C[C@H]2C)cc1,inactive,inactive
O=C(O)Cn1nc2ccccc2n1,inactive,inactive
Cc1noc(C)c1NC(=O)Nc1ccc2c(c1)C(=O)N([C@@H](C)CO)C[C@H](C)[C@@H](CN(C)Cc1ccc(Cl)c(Cl)c1)OCCCC[C@H](C)O2,inactive,inactive
C[C@H](CO)N1C[C@H](C)[C@@H](CN(C)C(=O)Nc2ccccc2)Oc2ccc(NC(=O)CCCCCC(=O)Nc3ccccc3N)cc2CC1=O,inactive,inactive
Cc1ccc(S(=O)(=O)Nc2ccc3c(c2)CC(=O)N([C@H](C)CO)C[C@H](C)[C@@H](CN(C)S(=O)(=O)c2c(C)noc2C)O3)cc1,inactive,inactive
Cc1ccc(S(=O)(=O)Nc2ccc3c(c2)C(=O)N([C@@H](C)CO)C[C@@H](C)[C@H](CN(C)C(=O)NC2CCCCC2)OCCCC[C@H](C)O3)cc1,inactive,inactive
O=C(C[C@@H]1C[C@H]2c3cc(NC(=O)c4cccnc4)ccc3O[C@H]2[C@@H](CO)O1)NCc1cc(F)ccc1F,inactive,inactive
C[C@H]1CN([C@@H](C)CO)C(=O)Cc2cc(NC(=O)CCCCCC(=O)Nc3ccccc3N)ccc2O[C@@H]1CN(C)Cc1ccc(C(F)(F)F)cc1,inactive,inactive

SMILES,cytotoxicity call (HSkMC),growth inhibition call (S. aureus RN4220)
COC[C@@H](O)CNc1ncnc2c1CCNCC2,inactive,inactive
Cc1ccc(NC(=O)[C@@H]2[C@@H]3CC/C=C\CC/C=C/CC[C@@H]32)cc1C,inactive,inactive
Nc1ncnc2c1CCC2,inactive,inactive
CCOc1ccccc1C(N)=O,inactive,inactive
C[C@H]1CN([C@@H](C)CO)C(=O)c2cc(C#CCN(C)C)cnc2O[C@@H]1CN(C)C(=O)Nc1cc(F)ccc1F,inactive,inactive
O=C(Cc1ccncc1)Nc1ccc2c(c1)[C@H]1C[C@H](CC(=O)N3CCc4ccccc4C3)O[C@@H](CO)[C@H]1O2,inactive,inactive
C[C@@H]1CN([C@@H](C)CO)C(=O)c2c(c3ccccc3n2C)-c2ccccc2CO[C@@H]1CN(C)Cc1ccc2c(c1)OCCN2C,inactive,inactive
COc1ccc(NC(=O)N(C)C[C@H]2Oc3ncc(C#C[C@H](C)O)cc3C(=O)N([C@@H](C)CO)C[C@H]2C)cc1,inactive,inactive
C[C@H](O)C#Cc1ccc2c(c1)O[C@H](CN(C)C(=O)CN(C)C)[C@@H](C)CN([C@@H](C)CO)S2(=O)=O,inactive,inactive
C[C@H]1CCCCO[C@H](CN(C)S(=O)(=O)c2cn(C)cn2)[C@@H](C)CN([C@@H](C)CO)C(=O)c2cc(NS(=O)(=O)c3cccs3)ccc2O1,inactive,inactive
CNC[C@@H]1Oc2ccc(NC(=O)Cn3cnnn3)cc2C(=O)N([C@@H](C)CO)C[C@H]1C,inactive,inactive
Cc1noc(C)c1NC(=O)Nc1ccc2c(c1)C(=O)N([C@H](C)CO)C[C@H](C)[C@H](CN(C)Cc1ccc(Cl)c(Cl)c1)OCCCC[C@H](C)O2,inactive,inactive
O=C(C[C@H]1CC[C@H]2[C@@H](COC[C@H](O)CN2S(=O)(=O)c2ccc(Cl)cc2)O1)N[C@@H]1CCN(Cc2ccccc2)C1,inactive,inactive
Clc1ccc(Cn2ccnc2)cc1,inactive,inactive
c1ccc(Oc2ccncc2)cc1,inactive,inactive
C[C@@H]1CN([C@@H](C)CO)S(=O)(=O)c2ccc(C#CCN(C)C)cc2O[C@@H]1CN(C)Cc1ccc(F)cc1,inactive,inactive
O=[N+]([O-])c1ncn(Cc2ccccn2)n1,inactive,inactive
C[C@@H]1O[C@@H](O[C@H]2[C@H](O[C@H]3[C@H](O)[C@@H](O[C@@H]4O[C@H](CO)[C@@H](O[C@@H]5O[C@H](CO)[C@H](O)[C@H]5O)[C@H](O)[C@H]4O)[C@H](O[C@H]4CC[C@]5(C)[C@H]6CC[C@]78OC[C@@]9(CCC(C)(C)C[C@@H]97)[C@H](O)C[C@@]8(C)[C@]6(C)CC[C@H]5C4(C)C)O[C@@H]3C(=O)O)O[C@H](CO)[C@H](O)[C@@H]2O)[C@H](O)[C@H](O)[C@H]1O,inactive,inactive
Cc1noc(C)c1NC(=O)Nc1ccc2c(c1)C(=O)N([C@@H](C)CO)C[C@H](C)[C@@H](CN(C)S(=O)(=O)c1cccs1)OCCCC[C@H](C)O2,inactive,inactive
C[C@H](CO)N1C[C@H](C)[C@@H](CN(C)CC2CCCCC2)Oc2ccc(NC(=O)Nc3ccc(F)cc3)cc2C1=O,inactive,inactive

SMILES,cytotoxicity call (HSkMC),growth inhibition call (S. aureus RN4220)
CC(=O)N1CCN(c2ccc(OCC3COC(Cn4ccnc4)(c4ccc(Cl)cc4Cl)O3)cc2)CC1 (stereo not given),inactive,inactive
C[C@@H]1CN([C@H](C)CO)C(=O)Cc2cc(NC(=O)Cn3cnnn3)ccc2O[C@H]1CN(C)Cc1ccc2c(c1)OCO2,inactive,inactive
CC(C)CC#Cc1ccc2c(c1)O[C@@H](CN(C)C(=O)Cc1ccncc1)[C@H](C)CN([C@H](C)CO)S2(=O)=O,inactive,inactive
Cc1ccc(S(=O)(=O)Nc2cccc3c2O[C@H](CN(C)Cc2ccc(Oc4ccccc4)cc2)[C@@H](C)CN([C@H](C)CO)C3=O)cc1,inactive,inactive
CNCc1cccc2ccccc12,inactive,inactive
O=C(CN1CCOCC1)NCC[C@H]1CC[C@@H](NS(=O)(=O)c2ccc(F)cc2)[C@H](CO)O1,inactive,inactive
COC(=O)C1=CC(CCCO)=C[C@@H](c2ccc(CN3CCCC3)cc2)N(Cc2sc3ccccc3c2Cl)C=C1C(=O)OC,inactive,inactive
C[C@H]1CN([C@@H](C)CO)C(=O)c2cccc(NC(=O)Nc3ccccc3)c2O[C@H]1CN(C)Cc1ccc(Oc2ccccc2)cc1,inactive,inactive
C[C@H]1CN([C@@H](C)CO)C(=O)c2cccc(NC(=O)c3ccc(-c4nccs4)cc3)c2O[C@H]1CN(C)C(=O)NC1CCCCC1,inactive,inactive
C[C@@H]1CCCCO[C@@H](CN(C)Cc2ccc3c(c2)OCO3)[C@@H](C)CN([C@@H](C)CO)C(=O)c2cc(NC(=O)Nc3ccc(F)cc3)ccc2O1,inactive,inactive
CC(C)NC(=O)N(C)C[C@H]1Oc2ccc(NC(=O)CCN3CCOCC3)cc2CC(=O)N([C@@H](C)CO)C[C@H]1C,inactive,inactive
CC(C)NC(=O)Nc1ccc2c(c1)C(=O)N([C@H](C)CO)C[C@H](C)[C@H](CN(C)Cc1ccccc1)OCCCC[C@H](C)O2,inactive,inactive
O=C(C[C@@H]1CC[C@H](NC(=O)Cc2ccccn2)[C@@H](CO)O1)NCCCN1CCOCC1,inactive,inactive
COc1ccc(NC(=O)Nc2ccc3c(c2)C(=O)N([C@H](C)CO)C[C@@H](C)[C@H](CN(C)CC2CC2)OCCCC[C@H](C)O3)cc1,inactive,inactive
COc1ccc(C(N)=O)cc1,inactive,inactive
C[C@H](CO)N1C[C@H](C)[C@@H](CN(C)C(=O)Nc2ccc(C(F)(F)F)cc2)Oc2ccc(NC(=O)Nc3cccc4ccccc34)cc2CC1=O,inactive,inactive
C[C@@H]1CN([C@@H](C)CO)C(=O)c2cc(NC(=O)CCCN(C)C)ccc2O[C@H]1CN(C)Cc1ccc(Oc2ccccc2)cc1,inactive,inactive
CN(C)CCCNC(=O)C[C@H]1CC[C@H]2[C@@H](COc3ccc(NC(=O)c4ccc5c(c4)OCO5)cc3C(=O)N2C)O1,inactive,inactive
COc1ccc(NC(=O)N[C@@H]2CC[C@H](CCNC(=O)CN3CCOCC3)O[C@@H]2CO)cc1,inactive,inactive
C[C@@H]1CN([C@H](C)CO)C(=O)c2cc(NC(=O)C3CC3)ccc2O[C@@H]1CN(C)S(=O)(=O)c1cn(C)cn1,inactive,inactive
